Data on 104 molecules can be found in article PMC6919601, “Identification of Plasmodium dipeptidyl aminopeptidase allosteric inhibitors by high throughput screening” (PLoS ONE, 2019).

Hit rate of the full screen: of about 110,000 compounds, about 230 (0.21%) showed an effect of 50% or more. The list shows a part of the results.
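Note: 30 min substrate incubation versus DMSO and 10 µM JCP410 controls.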

The target of this assay is DPAP1 (Plasmodium falciparum, UniProt Q8IIJ9). In words: primary screen, percent inhibition; read by cleavage of a fluorogenic dipeptide substrate; higher = more effect of the substance. Also noted: species or system P. falciparum D10 trophozoite lysates; single well.
Sequence of DPAP1 (Q8IIJ9 whole entry, looked up): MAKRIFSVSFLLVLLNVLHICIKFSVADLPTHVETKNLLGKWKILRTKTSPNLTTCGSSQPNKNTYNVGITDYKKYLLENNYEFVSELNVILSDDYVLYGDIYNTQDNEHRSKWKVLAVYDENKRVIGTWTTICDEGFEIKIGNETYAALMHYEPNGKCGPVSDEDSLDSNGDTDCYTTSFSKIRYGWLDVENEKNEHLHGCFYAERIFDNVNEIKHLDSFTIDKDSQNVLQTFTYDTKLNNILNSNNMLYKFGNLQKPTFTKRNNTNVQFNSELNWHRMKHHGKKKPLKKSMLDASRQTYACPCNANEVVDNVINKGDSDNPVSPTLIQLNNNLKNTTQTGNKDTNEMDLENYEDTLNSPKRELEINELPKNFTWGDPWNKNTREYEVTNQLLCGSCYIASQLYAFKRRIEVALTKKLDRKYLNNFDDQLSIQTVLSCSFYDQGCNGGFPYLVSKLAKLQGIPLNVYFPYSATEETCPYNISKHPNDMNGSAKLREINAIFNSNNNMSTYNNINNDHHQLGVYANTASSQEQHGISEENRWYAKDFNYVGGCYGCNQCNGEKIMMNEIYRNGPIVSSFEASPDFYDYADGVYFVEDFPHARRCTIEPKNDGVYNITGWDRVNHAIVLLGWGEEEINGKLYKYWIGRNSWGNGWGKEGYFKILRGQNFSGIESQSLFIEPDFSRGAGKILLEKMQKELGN
On to `O=C(Nc1ccccc1F)c1cccs1`, for which the “% Inhibition @ 10 uM” value came out at 0.467%.
The same measure for `O=C(CSc1nc2c(sc3ccccc32)c(=O)n1CCCN1CCCC1)NCc1ccccc1`: 4.47%.
In the case of `COCCCNC(=O)Cn1nc(C)n2c(cc3ccccc32)c1=O` it was 3.24%; in that of `CCn1c(-c2ccccc2)cs/c1=N\c1ccc(O)cc1`, 1.72%.
In the case of `O=C(c1ccco1)N1CCN(c2ncnc3[nH]cnc23)CC1`, the “% Inhibition @ 10 uM” value is -3.47%.
The same measure for `Cc1ccc2c(CN3CCN(c4ncccn4)CC3)cc(=O)oc2c1`: -3.49%; for `CCOc1ccc(C(=O)C2=C(O)C(=O)N(Cc3ccco3)C2c2ccc(Br)cc2)cc1` (centres unmarked): -4.82%; for `CC1(C)CC(=O)C2=C(C1)OC(N)=C(C#N)C2c1ccc(COc2ccc(F)cc2Cl)o1` (centres unmarked): -1.84%.
In the case of `COc1ccc(/C=C/C(=O)O)cc1S(=O)(=O)NCC1CCCO1` (centres unmarked) it was 1.25%; in that of `CCc1nc(SC)ncc1C(=O)NCCCN1CCCCC1`, 5.71%; in that of `OCCNCc1ccc(OCc2ccccc2Cl)cc1`, 2.84%.
In the case of `CC(C)(C)NC(=O)C1CCN(S(=O)(=O)c2ccc(F)cc2)CC1` it was 1.57%; in that of `CN(Cc1ccccc1)C(=O)c1ccc([N+](=O)[O-])cc1`, 1.91%.
Regarding `O=C1CC(C2CCCO2)C(=O)N1c1ccc(Cl)cc1` (centres unmarked), the “% Inhibition @ 10 uM” value is reported as -1.32%.
The same measure for `COc1ccc(CCNC(=O)c2csc3c2CCCC3)cc1OC`: -3.21%; for `COCCN1C(=O)c2ccccc2C(C(=O)NCC2COc3ccccc3O2)C1c1ccc(F)cc1` (centres unmarked): 2.84%.
In the case of `COc1cc([N+](=O)[O-])c(C)cc1NC(C)=O` it was -4.31%; in that of `CCOc1ccc(NC(=O)c2ccc(C(F)(F)F)cc2)cc1`, 0.161%.
As for `Cc1nn(-c2ccccc2)c2sc(C(=O)NCCc3ccccc3)cc12`, the “% Inhibition @ 10 uM” value is listed as 1.75%.
The same measure for `Cc1ccccc1Cn1c(C(=O)O)c(CNCCCN2CC(C)CC(C)C2)c2ccccc21` (centres unmarked): 5.09%; for `COc1cc(C(=O)NCc2ccco2)cc(OC)c1OC`: -5.64%.
For `COc1cc(OC)c(S(=O)(=O)N2CCOCC2)cc1C(=O)Nc1cccc(C(=O)O)c1`, the “% Inhibition @ 10 uM” value is 0.0265%.
The same measure for `Nc1nc(N)c2[nH]c(SCc3ccccc3)nc2n1`: -5.48%; for `Cc1nc2c(c(C)c1CCC(=O)NCc1ccccc1Cl)c(=O)n(C)c(=O)n2C`: -3.1%; for `CC(C)CCNc1nc2ccc(C(=O)c3ccccc3)cc2n2cnnc12`: 1.23%.
The same measure for `Cc1ccccc1OCC(=O)Nc1cccc(N2C(=O)c3ccccc3C2=O)c1`: 1.9%; for `Cc1nc(SCC(=O)Nc2ccc(C(N)=O)cc2)c(C#N)c(C)c1C`: 0.674%; for `O=C(CN1C(=O)C2C3CCC(C3)C2C1=O)Nc1ccc(-c2ccccc2)cc1` (centres unmarked): 1.79%.
The same measure for `Cc1ccc(OCCN2CCN(c3ncnc4sc5c(c34)CCCC5)CC2)cc1`: -0.85%.
Consider `O=C(N1CCCC1)N1c2ccccc2Sc2ccccc21`, for which the “% Inhibition @ 10 uM” value stood at 3.7%.
In the case of `Cc1cc(C)cc(OS(=O)(=O)CCN2C(=O)NC3(CCCCC3)C2=O)c1` it was -0.424%.
Take `COc1ccc(C(=O)/C=C/c2ccc(Cl)cc2Cl)c(OC)c1`: the “% Inhibition @ 10 uM” value was found to be 4.33%.
In the case of `CCOc1ccc(-c2cc(C(=O)N3CCC(C)CC3)c3ccccc3n2)cc1` it was -4.06%; in that of `COc1cc(NC(=O)CCc2ccccc2)c(C(=O)O)cc1OC`, 0.231%; in that of `COC(=O)c1c(NC(=O)c2ccccc2)sc(C(=O)Nc2ccccc2C)c1C`, 1.64%.
The same measure for `COc1cc2c(cc1OC)C1C(C(=O)N3CCC4(CC3)OCCO4)c3ccccc3C(=O)N1CC2` (centres unmarked): 1.16%.
In the case of `CCOC(=O)N1CCN(S(=O)(=O)c2ccc(C)cc2)C1C(C)C` (centres unmarked) it was 1.67%.
`COc1cc(C2Nc3ccc4ccccc4c3C3=C2C(=O)CC(C)(C)C3)cc(OC)c1O` (centres unmarked): the “% Inhibition @ 10 uM” value amounted to 2.78%.
Regarding `N#Cc1nc(COc2ccccc2)oc1NCc1ccc2c(c1)OCO2`, the “% Inhibition @ 10 uM” value is 1.43%.
The same measure for `CC(Cc1ccccc1F)N[C@H]1CC[C@H](O)CC1` (some centres unmarked): 0.0792%.
As for `COCCNc1nc2ccccc2n2c(C)nnc12`, the “% Inhibition @ 10 uM” value worked out at 3.17%.
The same measure for `COc1cccc(C2C(C#N)=C(N)Oc3cc(O)ccc32)c1` (centres unmarked): 3.99%.
The same measure for `O=C(O)c1ccc(Cn2c(SCc3ccc(F)cc3)nc3cccnc32)cc1`: 1.72%; for `CC(C)(C)Nc1ncnc(N)c1[N+](=O)[O-]`: -9.6%; for `Cc1cccc(NC(=O)CN2Cc3ccccc3C2=O)n1`: -4.96%.
In the case of `COc1ccc(-c2c(C(C)=O)c(C)nc3sc4c(SC)nc(C)nc4c23)cc1`, the “% Inhibition @ 10 uM” value is given as -2.28%.
In the case of `CC(C)(C)NC(=S)N1CCn2cccc2C1c1ccccc1F` (centres unmarked) it was 7.92%; in that of `COc1ccc(C2C3=C(O)CC(C)(C)CC3=Nc3nc4ccccc4n32)cc1` (centres unmarked), -3.53%; in that of `Fc1ccc(F)c(CN2CCc3c([nH]c4ccccc34)C2)c1`, -3.5%.
Take `COc1ccc(/C=C/c2nc3sc4c(c3c(=O)o2)CCCC4)cc1`: the “% Inhibition @ 10 uM” value is recorded as -4.11%.
The same measure for `FC(F)(F)c1cc(-c2ccccc2)nc2ncnn12`: 1.87%.
The same measure for `Cc1ccccc1NC(=O)c1c(NC(=O)CCC(=O)O)sc2c1CCCCC2`: 1.71%.
The same measure for `O=C(NC1CCN(c2ncccn2)CC1)c1cccc(F)c1`: -10.6%; for `COc1ccc(CNCc2cc(OC)c(OC)cc2OC)cc1`: -1.08%.
For the molecule `CC(C)(C)c1ccc(-c2nc(O)c3ccccc3n2)cc1`, the “% Inhibition @ 10 uM” value is listed as -4.71%.
In the case of `Cc1ccc(NC(=O)c2ccccc2Cl)c(C)c1` it was -0.351%; in that of `CCCOc1ccc(N2C(=O)CC(NCCc3ccc(F)cc3)C2=O)cc1` (centres unmarked), -1.95%; in that of `O=C(O)CCNC(=O)c1cccnc1`, 0.222%.
As to `O=C([C@@H]1C[C@@H]1c1ccccc1)N1CCCCCC1`, the “% Inhibition @ 10 uM” value was -3.77%.
For the molecule `COc1ccccc1CNC(=O)c1oc2ccc(S(=O)(=O)N3CC(C)CC(C)C3)cc2c1C` (centres unmarked), the “% Inhibition @ 10 uM” value was 1.94%.
On to `Cc1cccc(OCCCCCn2ccnc2)c1C`, for which the “% Inhibition @ 10 uM” value was -0.693%.
In the case of `O=S(=O)(NCC(c1ccccc1)N1CCOCC1)c1ccccc1` (centres unmarked) it was -4.07%.
For `N#CC1=C(N)Oc2cc(OCc3ccccc3)ccc2C1C1CC=CCC1` (centres unmarked), the “% Inhibition @ 10 uM” value worked out at 2.7%.
The same measure for `COc1ccc(C2C(C#N)=C(N)Oc3[nH]nc(-c4ccccc4)c32)c(CSc2ccccn2)c1` (centres unmarked): -3.02%.
The same measure for `O=C(ONc1cnc2ccccc2c1)c1ccco1`: 7.5%; for `NS(=O)(=O)c1ccc(N2CCCC2=O)cc1`: -1.86%.
In the case of `COc1ccccc1OCC(=O)Nc1nccs1` it was 5.23%; in that of `COc1cc(NS(=O)(=O)c2ccccc2)c(OC)cc1Cl`, -0.822%; in that of `C=CCCCOc1ccc(C(=O)O)cc1`, 4.6%.
As for `CCC(=O)Nc1ccc2[nH]c(C)nc2c1`, the “% Inhibition @ 10 uM” value is -0.294%.
In the case of `CCOc1ccc(C2c3c(oc4ccccc4c3=O)C(=O)N2c2ccc(C)cn2)cc1` (centres unmarked), the “% Inhibition @ 10 uM” value was -3.64%.
In the case of `NC(=O)c1ccccc1NC(=O)CCCc1ccccc1`, the “% Inhibition @ 10 uM” value was -0.68%.
The same measure for `CCN1CCC(N(C)CCc2ccccc2)CC1`: -3.8%; for `O=C(NCC1CCCO1)c1cc(-c2ccco2)nc2ccccc12` (centres unmarked): 3.05%.
With `CC(C)c1ccccc1NC(=O)CN(c1ccccc1F)S(C)(=O)=O`, the “% Inhibition @ 10 uM” value was -2.32%.
With `O=C(NC1CCCCCC1)C1CCCN1S(=O)(=O)c1cccc2cccnc12` (centres unmarked), the “% Inhibition @ 10 uM” value is recorded as -2.42%.
The same measure for `Cc1ccc(CS(=O)Cc2ccc(C(=O)N3CCC(C(N)=O)CC3)o2)cc1` (centres unmarked): -0.0309%; for `CCc1ccccc1NC(=O)/C=C\C(=O)O`: 3.01%; for `COc1ccc(C(=O)O/N=C2/c3ccccc3-c3nc4ccccc4nc32)cc1`: -6.41%.
As for `CCCCCCO/C(O)=C1\C(C)=NC(=S)NC1c1ccccc1OCC` (centres unmarked), the “% Inhibition @ 10 uM” value was found to be 23.6%.
The same measure for `COc1ccc(Cl)cc1NC(=O)c1cccc(C(=O)Nc2cc(Cl)ccc2OC)n1`: 2.76%.
In the case of `Cn1nc(C(=O)NCCCN2CCN(Cc3ccccc3)CC2)c2c1-c1ccccc1OC2` it was 4.86%.
In the case of `COC(=O)c1cccc(Oc2nc3c(c(=O)n(C)c(=O)n3C)n2C(C)C)c1` it was -1.33%; in that of `COc1ccc(CN2CCN(C3CCCC(C)C3)CC2)c(OC)c1` (centres unmarked), 11.6%; in that of `Cc1ccccc1-c1noc(-c2ccc(Br)cc2)n1`, -5.11%.
On to `COc1ccccc1/C=C/CNc1ccc(F)c(Cl)c1`, for which the “% Inhibition @ 10 uM” value is on record as 0.472%.
In the case of `Cc1nc2c(-c3ccccc3)c(C)nn2c(C)c1CCC(=O)N1CCOCC1` it was -4.1%; in that of `CCOC(=O)c1c(C)[nH]c(C)c1S(=O)(=O)N1CCC(C(=O)Nc2cccc(C)n2)CC1`, -1.23%; in that of `Cc1nn(CCCC(=O)NC(C)CCc2ccccc2)c(=O)c2cc3sccc3n12` (centres unmarked), 3.4%.
In the case of `CCOc1ccc(-c2nc3ccccc3c(C(=O)O)c2C)cc1` it was -7.94%; in that of `O=S(=O)(c1ccc2[nH]c3c(c2c1)CCCC3)N1CCN(C2CCCCC2)CC1`, -0.35%.
The same measure for `O=C1N=C(N2CCCCC2)S/C1=C\c1cccc(O)c1`: 0.661%; for `c1ccc(-c2cc(NC3CCCC3)n3cnnc3n2)cc1`: 2.54%.
Turning to `C[n+]1c(/C=C2\C=CC=CN2CCO)sc2ccccc21`, the “% Inhibition @ 10 uM” value came out at 5.3%.
The same measure for `Cc1ccc2c(NC(=O)C3CC3)c(C)ccc2n1`: -0.173%.
Turning to `CN(C)CCN(C)Cc1ccc(Cl)c(Cl)c1`, the “% Inhibition @ 10 uM” value worked out at 2.94%.
In the case of `COCCNC(=S)N1CCc2cc(OC)c(OC)cc2C1COc1ccccc1OC` (centres unmarked), the “% Inhibition @ 10 uM” value amounted to 2.06%.
In the case of `CCOCCCNC(=O)Cn1ncc2c(=O)oc3ccccc3c21` it was -1.03%.
`Cc1cccc(CN2CCN(C(=O)c3cccnc3)CC2)c1`: the “% Inhibition @ 10 uM” value was -5.7%.
The same measure for `CCCCN(Cc1ccccc1)Cc1ccco1`: -3.57%; for `Cn1cc(NC(=O)NCCc2ccsc2)c2ccccc2c1=O`: 7.86%.
In the case of `CCOC(=O)c1[nH]c2c([N+](=O)[O-])cc(OCC)cc2c1C` it was 6.83%; in that of `COc1ccc(-n2c(S)nnc2CNC(=O)c2ccc(OC)cc2OC)cc1`, 20.8%; in that of `O=C(NCc1ccccn1)c1cccs1`, 2.22%.
